According to the RNAGym collection of RNA variant scans (doi:10.1093/nar/gkz1192):
Read counts are not given, so values of variants with three or more changes are uncertain.

B1: CPEB3 Ribozyme (parent)
chain: UAACAGGGGGCCACAGCAGAAGCGUUCACGUCGCAGCCCCUGUCAGAUUCUGGUGAAUCUGCGAAUUCUGCUGUAUAUCUC

Variants of: B1
Assay: self-cleavage, relative activity (ratio to wild type); higher = more cleavage; in vitro, sequencing
In short: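 CPEB3 self-cleaving ribozyme mutant libraries were made by rounds of error-prone PCR, barcoded, and transcribed in vitro with T7 RNA polymerase for 5 hours at 37°C. Cleavage occurred during transcription and a 15 min DNase I step before EDTA stop. RNAs were reverse transcribed with template switching and Illumina-sequenced, with DNA sequencing mapping barcodes to variants. Relative activity is the variant's cleaved/total read fraction divided by wild type's (minimum 5 reads), averaged across three batches.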

Row | Variant | self-cleavage
1 | A2U A45G U66A | 0.56
2 | A2U A47G U48C G70C U80C | 0.16
3 | A2U A56G A75G U80A | 0.85
4 | A2U A56G U80C | 1.09
5 | A2U A56U U58A | 0.17
6 | A2U A56U U69C | 0.25
7 | A2U A65G A77G | 0.4
8 | A2U A65U U66C | 0.17
9 | A2U C4U A21G | 0.98
10 | A2U C11U A13G A28G A65G U69A | 0.16
11 | A2U C17A A64U | 0.11
12 | A2U C17U U48C U67C U72C | 0.06
13 | A2U C23G A35G A64G U80C | 0.12
14 | A2U C29U A35U U41C C81U | 0.3
15 | A2U C29U A65U | 0.19
16 | A2U C59G U60G | 0.15
17 | A2U G6A A28G G33C U43A | 0.07
18 | A2U G6A A35G C40U A47G U49A A57G | 0.07
19 | A2U G6U U26C A28G | 0.07
20 | A2U G7A A45G U54A | 0.06
21 | A2U G8A C12A G33U A45G | 0.18
22 | A2U G8A U41C | 0.42
23 | A2U G9C A57G | 0.37
24 | A2U G9U G10U U41C | 0.06

Row | Variant | self-cleavage
25 | A2U G10A A45U U49C A64U | 0.12
26 | A2U G10A U49C | 0.07
27 | A2U G22C A65U | 0.1
28 | A2U G30A U41C U54C U60A A64U A77U | 0.1
29 | A2U G30U A35G | 0.16
30 | A2U G33C A57G A64C U78C | 0.13
31 | A2U G33U A57G | 0.26
32 | A2U G55A U69A U72A | 0.2
33 | A2U U25C G36A A56G U60C U80A | 0.06
34 | A2U U25C G52C | 0.11
35 | A2U U25C U78C | 0.33
36 | A2U U31C U60C C68A | 0.1
37 | A2U U41A C62A U80C | 0.19
38 | A2U U41A U51C U69A C79A | 0.03
39 | A2U U41C U49C | 0.36
40 | A2U U41C U51C U69G A77G | 0.57
41 | A2U U41G A56G U60C | 0.28
42 | A2U U48C U69A | 0.1
43 | A2U U49A C68A U80C | 0.15
44 | A2U U72A C81U | 0.39
45 | A3C A5C A13U A18G A57G | 0.7
46 | A3C A5G U76C | 0.99
47 | A3C A13C A65U U80C | 0.36
48 | A3C A13G U25C U43A G63A U69A A75G | 0.01

Row | Variant | self-cleavage
49 | A3C A13G U31A U48C | 0.68
50 | A3C A13U U69A | 1.02
51 | A3C A15G A18U U31C A56G U80C | 0.09
52 | A3C A15G A28G U31C A45G | 0.7
53 | A3C A15G C17U A20G A47G A56U | 0.08
54 | A3C A15G U25C U54C | 0.67
55 | A3C A15G U25C U76C U78A | 0.09
56 | A3C A18C U25C A47G U78A | 0.1
57 | A3C A18U A20G | 0.7
58 | A3C A20U U41C U49A | 0.09
59 | A3C A21G U26A U80C | 0.92
60 | A3C A21G U51C C71G | 0.45
61 | A3C A56G U67C | 0.15
62 | A3C C11A U25C U49C A56U A57C U76C | 0.06
63 | A3C C12A U26C U54C | 0.83
64 | A3C C12U G16U U41C G55A | 0.2
65 | A3C C23U A56U U60C | 0.34
66 | A3C C23U U48G A56G U69A | 0.08
67 | A3C C39U A45U | 0.23
68 | A3C C39U U51C A65G | 0.2
69 | A3C G8A G9A U31C U67G | 0.26
70 | A3C G8C U41C U69G U72C | 0.08
71 | A3C G8U G33C | 0.31
72 | A3C G9C A56G G61U U69C | 0.28

Row | Variant | self-cleavage
73 | A3C G9C G61U | 0.33
74 | A3C G9U U48A U69C U76G | 0.19
75 | A3C G10C U76C | 0.52
76 | A3C G33C C40U U41A A75U | 0.13
77 | A3C U25A U31A C37U A45U U74C C81A | 0.05
78 | A3C U25C C50A U66C | 0.39
79 | A3C U26A C27U A35G | 0.77
80 | A3C U26A U51C G63U | 1.03
81 | A3C U26C A47G | 0.65
82 | A3C U43A G61A | 0.92
83 | A3C U54C U67C | 0.34
84 | A3C U60C U67C U72A A77G | 0.17
85 | A3G A5G A13U C23U A28G U80C | 0.63
86 | A3G A5G A20G A35G U78C | 1.1
87 | A3G A5G A28G U49A | 0.52
88 | A3G A5G A28U A45G | 0.32
89 | A3G A5G A35C U49C U67A U69C | 0.08
90 | A3G A5G A45G G52U U67A | 0.27
91 | A3G A5G A45U U60A U80C | 0.83
92 | A3G A5G G8U U72C | 0.22
93 | A3G A5G G9A A57G C62A | 0.33
94 | A3G A5G G10C U31C | 0.88
95 | A3G A5G U41C U48C | 0.73
96 | A3G A5G U78C | 0.64

Row | Variant | self-cleavage
97 | A3G A5U A15U U58C A75C | 0.91
98 | A3G A5U A18G U25C U51A A65G | 0.05
99 | A3G A5U A21G C44A A64G U78C | 0.33
100 | A3G A5U A21U U25C U43C U51A U69A | 0.11
101 | A3G A5U C17G U26C A65U | 0.29
102 | A3G A5U G9A A20U A28G | 0.15
103 | A3G A5U U25C G30A A56U A57G A64U | 0.15
104 | A3G A5U U26C U66C | 0.58
105 | A3G A5U U49A | 0.94
106 | A3G A5U U67C | 0.36
107 | A3G A5U U67C U74C | 0.2
108 | A3G A5U U69C | 0.58
109 | A3G A13G A15C U49C A64U | 0
110 | A3G A13G A18U U72A | 0.27
111 | A3G A13G A20U A47G A56G | 0.51
112 | A3G A13G A20U U54C U72G | 0.12
113 | A3G A13G A21G U31C C40A A64G | 0.12
114 | A3G A13G A28G A64G U67C G70A U74A | 0.56
115 | A3G A13G A45G G46U U51A U80G | 0.42
116 | A3G A13G C27G G63A U66C U76G | 0.12
117 | A3G A13G C59U U60A | 0.14
118 | A3G A13G G55A C62U U72A U80C | 0.14
119 | A3G A13G G70C U78A | 0.03
120 | A3G A13G U48C U49C U60C | 0

Row | Variant | self-cleavage
121 | A3G A13G U51A C62U A65G U67C U74C | 0.19
122 | A3G A13U A15G U26A G30A U66C | 0.25
123 | A3G A13U A21G | 0.76
124 | A3G A13U A21G A28U U43C U60A U78C | 0.08
125 | A3G A13U C32G U49C C59A U69A | 0
126 | A3G A13U G19A U41A A56G A57U | 0.37
127 | A3G A13U G22A U31C A75G | 0.3
128 | A3G A13U G24A U41C C79G | 0.09
129 | A3G A13U G33A U43A | 0.44
130 | A3G A13U U25G U66C U80C | 0.08
131 | A3G A13U U31C U48C U66C | 0.07
132 | A3G A15C A35U U48C A56C A57U | 0.12
133 | A3G A15C U25C A45G | 0.53
134 | A3G A15C U51A G52U U60C | 0.96
135 | A3G A15G A18G A57G C59A U78C | 0.06
136 | A3G A15G A20G A21U G22C U58C | 0.49
137 | A3G A15G A20G G33A | 0.19
138 | A3G A15G A20U A28G U54C U60C | 0.42
139 | A3G A15G A45G U54C U69C | 0.28
140 | A3G A15G A75G | 1.11
141 | A3G A15G C23U U41C A64U U69A | 0.04
142 | A3G A15G G33A U43C | 0.2
143 | A3G A15G G36C C40U G46U U67G | 0.1
144 | A3G A15G U25C G61C U67C | 0.29

Row | Variant | self-cleavage
145 | A3G A15G U26A A45C G70A U72C | 0.05
146 | A3G A15G U31A | 0.6
147 | A3G A15G U66C | 0.56
148 | A3G A15U A18G U25C A65G | 0.1
149 | A3G A15U A21G G24A G73A U76C | 0.1
150 | A3G A15U A21G U67C U69C U74A A77G | 0.05
151 | A3G A15U A45G U69A | 0.37
152 | A3G A15U A45U A47G U69C A75G | 0.21
153 | A3G A15U A47G U60A A75G | 0.39
154 | A3G A15U C38U A47G U48C U69A | 0.05
155 | A3G A15U G16C G33A U41A U80A | 0.53
156 | A3G A15U G24A U25G A57U U69A | 0.02
157 | A3G A15U U25A U43A U48C U58C C79U | 0.03
158 | A3G A15U U31C G36U U72C | 0.28
159 | A3G A15U U43C U54A | 0.28
160 | A3G A15U U76C | 0.77
161 | A3G A18C A20C U51C U78C | 0.11
162 | A3G A18C A45G | 0.46
163 | A3G A18C A45U A77G | 0.25
164 | A3G A18C U25G U72A | 0.28
165 | A3G A18C U60A | 0.28
166 | A3G A18G A20G U25C U76A | 0.53
167 | A3G A18G A35G A47G U78C | 1.17
